Each structure is given as a SMILES string. Several values for one entry are separate records, joined by “and”; a condition that tells them apart may be missing. Equal entries are not always repeated. Hit rate of the full screen: of about 150,000 compounds, about 540 (0.36%) showed an effect of 50% or more. The list shows a part of the results.

Data on 42 compounds can be found in ChEMBL document CHEMBL4888484, “Replenishing the malaria drug discovery pipeline: Screening and hit evaluation of the MMV Hit Generation Library 1 (HGL1) against asexual blood stage Plasmodium falciparum ,using a nano luciferase reporter read-out” (2022).

The subject of the assay is Plasmodium falciparum. In words: Primary screen in NF54 nanoGlo assay, in single point, at 2uM, 72h; a lower Z score goes with more inhibition. Format: functional, Erythrocyte. Conditions: timepoint 72 hour.

On to `O=C(CNS(=O)(=O)c1ccc2ncccc2c1)NC1CCCCC1`, for which the “% Inhibition” value is listed as -14% and the Z score is 1.95.

As to `O=C(Nc1ccc(F)c(F)c1)c1ccc(-c2c(-c3ccc(F)cc3)ncn2C2CCCC2)o1`, the “% Inhibition” value is listed as -3% and the Z score came to 0.52.

With `CC(=O)N[C@H](C(=O)Nc1cc(F)ccc1C)C(C)C`, the “% Inhibition” value was -18% and the Z score is recorded as 1.53.

Consider `Cc1nc(N2CCOCC2)c2c(C(=O)Nc3cc(Cl)ccc3C)c(C)oc2n1`, for which the “% Inhibition” value worked out at 6% and the Z score is given as -1.08.

Take `COc1ccccc1NC(=S)Oc1cccc(C(=O)Nc2ccc3ccccc3c2)c1`: the “% Inhibition” value is listed as -7% and the Z score was determined as 1.06.

For `Cc1ncc2c(c1-c1noc(-c3ccc4ccccc4n3)n1)CCNC2`, the “% Inhibition” value is listed as -8% and the Z score was 1.16.

For `CCn1nncc1C(=O)Nc1nn(-c2cccnc2)cc1C`, the “% Inhibition” value was -3% and the Z score came to 0.6.

For the compound `CCN(CC(=O)Nc1c(F)cccc1F)C(=O)CCOc1ccccc1`, the “% Inhibition” value is listed as -14% and the Z score was 2.24.

`CCNC(=O)NC1CN(C(C)c2ncc(C(C)(C)C)o2)C[C@@H]1OC` (some centres undefined): the “% Inhibition” value was 6% and the Z score is reported as -0.86.

`CCC(=O)NCc1nc2c(n1C)CN(C(=O)c1cc(F)cc(F)c1)CC2`: the “% Inhibition” value was 10% and the Z score was -1.12.

As to `Cc1cc(=O)c(CO)nn1Cc1cc(Cl)c2c(c1)OCCO2`, the “% Inhibition” value came out at 11% and the Z score is reported as -1.39.

Take `CN(C)c1nc(N)nc(CN2CCC3CCCCC3C2)n1` (centres undefined): the “% Inhibition” value is 7% and the Z score was -0.66.

With `CC(=O)Nc1cccc(NC(=O)CN2CC[C@@H](C(F)(F)F)C2(C)C)c1`, the “% Inhibition” value turned out to be 3% and the Z score is -0.42.

`O=C(NCCc1cc(F)cc2c1OCOC2)c1cccc[n+]1[O-]`: the “% Inhibition” value is -50% and the Z score came out at 5.85.

Regarding `O=C(c1cccc(Cl)c1)[C@H]1CCCN(C(=O)c2ccn(C(F)F)n2)C1`, the “% Inhibition” value is given as -1% and the Z score is recorded as 0.25.

In the case of `C=CCNC(=O)CN1C(=O)N[C@@H](C(C)C)C1=O`, the “% Inhibition” value is on record as -4% and the Z score stood at 0.86.

Regarding `CCOc1ccc(-n2ccc(=O)c(C(=O)Nc3ccc(S(=O)(=O)N4CCC(C)CC4)cc3)n2)cc1`, the “% Inhibition” value was -5% and the Z score was found to be 0.92.

For `COCCN1C(=O)[C@@H]2C[C@@H](CN2Cc2nccn2C)Oc2ccccc21`, the “% Inhibition” value is reported as 0% and the Z score came to 0.

Turning to `O=C1CCCC[C@@H](C(=O)Nc2ccc(-c3nncs3)cc2)N1`, the “% Inhibition” value was -3% and the Z score is given as 0.5.

As for `Cc1onc(-c2ccccn2)c1C(=O)Nc1ncc(C2CCNCC2)s1`, the “% Inhibition” value is given as -10% and the Z score is on record as 1.49.

For `COc1ccccc1CNCC1CCOC1c1c(C)nn(C)c1C` (centres undefined), the “% Inhibition” value was -9% and the Z score amounted to 0.99.

As for `Cc1ccc(NC(=O)NC(Cc2ccc3c(c2)OCO3)Cc2ccc3c(c2)OCO3)cc1`, the “% Inhibition” value was -8% and the Z score is given as 1.53.

As to `Fc1ccc(-n2nc(C3CCOCC3)nc2-c2cn[nH]c2)c(F)c1`, the “% Inhibition” value was determined as 6% and the Z score is -0.9.

For `C/N=C1/c2cc3ccccc3n2CCN1C`, for the setting “2 µM”, the “% Inhibition” value is -13% and -9%; the Z score is 1.7 and 0.84.

`O=C(Cn1cncn1)N1CC[C@@]2(CCCN(Cc3ccc(F)c(F)c3)C2)C1`: the “% Inhibition” value is reported as -13% and the Z score is 1.39.

As for `Cc1cc(C)n([C@@H](CNC(=O)CN2C(=O)CCC2=O)c2ccsc2)n1`, the “% Inhibition” value stood at 17% and the Z score was -2.36.

For `O=C(Cc1ccccc1O)NC1(CN2CCN(c3ccc(F)cc3)CC2)CC1`, the “% Inhibition” value is -4% and the Z score was found to be 0.38.

On to `Cc1nn(-c2ccccc2)c(C)c1[C@H]1CC(=O)Nc2c1cnn2C`, for which the “% Inhibition” value is listed as 31% and the Z score is reported as -3.47.

Turning to `C#CCN1C(=O)C2(NC(=O)C3CCCCN32)c2ccccc21` (centres undefined), the “% Inhibition” value is on record as -1% and the Z score is on record as 0.18.

Take `O=C(O)CCc1cc2n(n1)CCCN(Cc1ccc(C(F)(F)F)nc1)C2`: the “% Inhibition” value was 3% and the Z score is -0.63.

As to `CC(=O)Nc1cccc(Oc2c(-c3ccccc3)c3ccccc3[nH]c2=O)c1`, the “% Inhibition” value was -5% and the Z score stood at 0.97.

As for `CO[C@@H](C)c1nc(Cn2ccc(-c3ccsc3)n2)cs1`, the “% Inhibition” value is -2% and the Z score was 0.38.

As to `C[C@H]1C[C@@H](C(=O)O)CCN1Cc1cc2ccccc2o1`, the “% Inhibition” value was -3% and the Z score was 0.63.

On to `Cc1cc(NC(=O)N2CC[C@H](O)[C@@H](O)C2)n(Cc2ccccc2Cl)n1`, for which the “% Inhibition” value is -15% and the Z score was 2.88.

In the case of `CCc1cccc2c(C3=CCN(C(=O)Nc4cn[nH]c4)CC3)c[nH]c12`, the “% Inhibition” value is reported as -8% and the Z score turned out to be 1.44.

Regarding `O=C(NCCCN1CCOCC1)C1C2CCCC21` (centres undefined), the “% Inhibition” value was found to be 38% and the Z score is -5.54.

Regarding `COc1ccc(-c2nnc3n2[C@H](C(=O)Nc2ccccc2OC(F)F)CC(O)=N3)cc1`, the “% Inhibition” value is reported as 31% and the Z score is -3.55.

`O=C(COc1ccc(Cl)cc1Br)Nn1cnc2ccccc2c1=O`: the “% Inhibition” value is -4% and the Z score worked out at 0.42.

Consider `Cc1ccc(-c2ocnc2C(=O)Nc2ccc(Cl)cc2)s1`, for which the “% Inhibition” value is given as -3% and the Z score was determined as 0.54.

As to `CCOC1CC(O)C12CCN(C(=O)Cn1ccc(C)cc1=O)CC2` (centres undefined), the “% Inhibition” value was determined as 4% and the Z score was -0.45.

In the case of `O=C(NC1CCCC1n1ccnc1)C1CCCCC1` (centres undefined), the “% Inhibition” value was found to be 3% and the Z score is recorded as -0.39.

Take `CCn1c(C)cc(C(=O)CN2CCNC(=O)C2)c1C`: the “% Inhibition” value was -12% and the Z score worked out at 1.11.

As usually defined, the % Inhibition is the relative decrease from the control value, in per cent.
